# Test results published in patent US4357344A, “Polybutylbenzylphenols and benzyl-3,4-methylenedioxybenzenes in insect population control” (The United States of America as represented by the …, priority 1979, dated 1982).
# At least one compound was matched to its structure with a doubt left.
# What was measured:
# flies (family Muscidae) [1] = assay: Anti-procreant comparison tests (sexual sterility or oviposition inhibition); format: in vivo; conditions: for activity in the method of the invention (ineffective compounds): general statement of the description; for inducing sexual sterility or inhibiting oviposition: comparison tests, Examples 6-9
# Description: The compound to be tested was administered in a standard fly food containing 6 parts of sugar, 6 parts of powdered non-fat dry milk, and 1 part of powdered egg yolk. Treated food was prepared by mixing an appropriate amount of a solution or suspension of CBCP in acetone with a batch of the food. The acetone was evaporated (4-6 hours) and the dry material was repulverized.
# Oviposition inhibition tests: Samples of treated food with a container of water were placed in cages containing 100 newly-emerged adult flies (family Muscidae). After the flies had been exposed to the treated diet for 6-7 days, 1/2 inch of moist standard fly larva-rearing medium (CSMA) in souffle cups was placed in the cages for oviposition. After 4-6 hours, the cup was removed and examined for eggs. If no eggs were laid, the medium was offered again at intervals of 1 or 2 days until it had been offered three times or the flies had oviposited.
# Chemosterilancy tests: If eggs were laid in the above tests, the cups were filled with water and stirred to break up the egg masses. A random sample of 100 eggs from each cup was collected and placed on a small piece of black cloth which was then laid on top of moist larva-rearing medium in a rearing container. Observations were made to determine percentage of egg hatch and pupal development.
# These flies were maintained on untreated fly food. After 5 days, cups containing the larval-rearing medium was provided as previously described and a 100-egg sample was collected and place on moist larve-rearing medium. About a week after oviposition, examination was made to determine the percentage of hatched eggs and of pupae developed.
# For purpose of comparison the above-described tests were applied to 2-benzyl-4-t-butylphenol and 2-(α-methylbenzyl)-4-t-butylphenol.
# For purposes of comparison the above-described tests were applied to 2,6-di-t-butyl-4-(4-methoxybenzyl) phenol and 2,6-di-t-butyl-4-(α-methyl-4-methoxybenzyl)phenol, both compounds being ineffective in inducing sexual sterility or in inhibiting oviposition.
# For purposes of comparison the following compounds were tested and found to be ineffective in inducing sexual sterility or in inhibiting oviposition: 2-(4-methoxybenzyl)-3,4-methylenedioxyphenol, (α-methylbenzyl)-3,4-methylenedioxy-6-methoxybenzene, (α,α-dimethylbenzyl)-3,4-methylenedioxy-6-methoxybenzene, (α,α-dimethylbenzyl)-3,4-methylenedioxy-6-ethoxybenzene, (α,α-dimethylbenzyl)-3,4-methylenedioxy-6-n-propoxybenzene, (α,α-dimethylbenzyl)-3,4-methylenedioxy-6-n-butoxybenzene, (α,α-dimethylbenzyl)-3,4-methylenedioxy-6-n-pentoxybenzene, (α-vinylbenzyl)-3,4-methylenedioxy-6-methoxybenzene, (α-vinylbenzyl)-3,4-methylenedioxy-6-ethoxybenzene, (α-vinylbenzyl)-3,4-methylenedioxy-6-n-propoxybenzene.
# flies (family Muscidae) [2] = assay: Oviposition inhibition tests (treated fly food; Examples 6-9); format: in vivo
# Description: The compound to be tested was administered in a standard fly food containing 6 parts of sugar, 6 parts of powdered non-fat dry milk, and 1 part of powdered egg yolk. Treated food was prepared by mixing an appropriate amount of a solution or suspension of CBCP in acetone with a batch of the food. The acetone was evaporated (4-6 hours) and the dry material was repulverized. Oviposition inhibition tests: Samples of treated food with a container of water were placed in cages containing 100 newly-emerged adult flies (family Muscidae). After the flies had been exposed to the treated diet for 6-7 days, 1/2 inch of moist standard fly larva-rearing medium (CSMA) in souffle cups was placed in the cages for oviposition. After 4-6 hours, the cup was removed and examined for eggs. […] The procedure outlined in Example 6 was followed using a Group II compound. The procedure outlined in Example 6 was followed using Group III compounds. The results are summarized below: The procedure outlined in Example 6 was followed substituting a Group IV compound for those of Group I. The table below provides a summary of results.
compound,measurement,setting,value
"Oc1ccc(Cc2ccc3c(c2)OCO3)cc1 [4-hydroxybenzyl-3,4-methylenedioxybenzene, reference compound]",activity in the method of the invention (ineffective compounds),flies (family Muscidae) [1],ineffective
"CCCCCOc1cc2c(cc1C(C)(C)c1ccccc1)OCO2 [BB, (α,α-Dimethylbenzyl)-3,4-methylenedioxy-6-n-pentoxybenzene]",inducing sexual sterility or inhibiting oviposition,flies (family Muscidae) [1],ineffective
"C=CCc1cc2c(cc1Cc1ccc(OC)cc1)OCO2 [CC, (4-Methoxybenzyl)-3,4-methylenedioxy-6-(2-propenyl)benzene]",Oviposition,flies (family Muscidae) [2]; 0.025% in food,Normal
same,Oviposition,flies (family Muscidae) [2]; 0.25% in food,None
"COc1cc2c(cc1C(C)c1ccccc1)OCO2 (stereo not drawn) [Compound T, (α-Methylbenzyl)-3,4-methylenedioxy-6-methoxybenzene]",inducing sexual sterility or inhibiting oviposition,flies (family Muscidae) [1],ineffective
same,activity in the method of the invention (ineffective compounds),flies (family Muscidae) [1],ineffective
"CCCc1cc2c(cc1Cc1ccc(OC)cc1)OCO2 [DD, (4-Methoxybenzyl)-3,4-methylenedioxy-6-n-propylbenzene]",Oviposition,flies (family Muscidae) [2]; 0.1% in food,Normal
same,Oviposition,flies (family Muscidae) [2]; 0.25% in food,None
"C=CC(c1ccccc1)c1cc2c(cc1OC)OCO2 (stereo not drawn) [EE, (α-Vinylbenzyl)-3,4-methylenedioxy-6-methoxybenzene]",inducing sexual sterility or inhibiting oviposition,flies (family Muscidae) [1],ineffective
"C=CC(c1ccccc1)c1cc2c(cc1OCC)OCO2 (stereo not drawn) [FF, (α-Vinylbenzyl)-3,4-methylenedioxy-6-ethoxybenzene]",inducing sexual sterility or inhibiting oviposition,flies (family Muscidae) [1],ineffective
"COc1ccc(C(C)c2cc3c(cc2OC)OCO3)cc1 (stereo not drawn) [H, (α-Methyl-4-methoxybenzyl)-3,4-methylenedioxy-6-methoxybenzene]",Oviposition,flies (family Muscidae) [2]; 0.025% in food,Normal
"COc1ccc(Cc2ccc3c(c2)OCO3)cc1C [HH, (3-Methyl-4-methoxybenzyl)-3,4-methylenedioxybenzene]",Oviposition,flies (family Muscidae) [2]; 0.1% in food,Normal
same,Oviposition,flies (family Muscidae) [2]; 0.25% in food,None
"CCCOc1cc2c(cc1C(C)c1ccc(OC)cc1)OCO2 (stereo not drawn) [I, (α-Methyl-4-methoxybenzyl)-3,4-methylenedioxy-6-n-propoxybenzene]",Oviposition,flies (family Muscidae) [2]; 0.025% in food,Normal
same,Oviposition,flies (family Muscidae) [2]; 1.0% in food,None
"CCOc1ccc(Cc2ccc3c(c2)OCO3)cc1C [II, (3-Methyl-4-ethoxybenzyl)-3,4-methylenedioxybenzene]",Oviposition,flies (family Muscidae) [2]; 0.25% in food,Normal
same,Oviposition,flies (family Muscidae) [2]; 0.5% in food,None
"COc1c(C)cc(Cc2ccc3c(c2)OCO3)cc1C [JJ, (3,5-Dimethyl-4-methoxybenzyl)-3,4-methylenedioxybenzene]",Oviposition,flies (family Muscidae) [2]; 0.25% in food,Normal
same,Oviposition,flies (family Muscidae) [2]; 0.5% in food,None
CCOc1c(C)cc(Cc2ccc3c(c2)OCO3)cc1C [KK],Oviposition,flies (family Muscidae) [2]; 0.25% in food,Normal
same,Oviposition,flies (family Muscidae) [2]; 0.5% in food,None
"COc1ccc(Cc2cc3c(cc2OC)OCO3)cc1 [L, (4-Methoxybenzyl)-3,4-methylenedioxy-6-methoxybenzene]",Oviposition,flies (family Muscidae) [2]; 0.1% in food,Normal
same,Oviposition,flies (family Muscidae) [2]; 0.25% in food,None
"COc1ccc(Cc2ccc3c(c2)OCO3)c(OC)c1 [LL, (2,4-Dimethoxybenzyl)-3,4-methylenedioxybenzene]",Oviposition,flies (family Muscidae) [2]; 0.1% in food,Normal
same,Oviposition,flies (family Muscidae) [2]; 0.25% in food,None
"CCOc1cc2c(cc1Cc1ccc(OC)cc1)OCO2 [M, (4-Methoxybenzyl)-3,4-methylenedioxy-6-ethoxybenzene]",Oviposition,flies (family Muscidae) [2]; 0.05% in food,Normal
same,Oviposition,flies (family Muscidae) [2]; 0.1% in food,None
"COc1cc2c(cc1Cc1ccc3c(c1)OCO3)OCO2 [MM, (3,4-Methylenedioxy-6-methoxybenzyl)-3,4-methylenedioxybenzene]",inducing sexual sterility or inhibiting oviposition,flies (family Muscidae) [1],ineffective
"CCCOc1cc2c(cc1Cc1ccc(OC)cc1)OCO2 [N, (4-Methoxybenzyl)-3,4-methylenedioxy-6n-propoxybenzene]",Oviposition,flies (family Muscidae) [2]; 0.1% in food,Normal
same,Oviposition,flies (family Muscidae) [2]; 0.25% in food,None
"CCOc1cc2c(cc1Cc1ccc3c(c1)OCO3)OCO2 [NN, (3,4-methylenedioxy-6-ethoxybenzyl)-3,4-methylenedioxybenzene]",Oviposition,flies (family Muscidae) [2]; 0.1% in food,Normal
"COc1ccc(Cc2cc3c(cc2OC(C)C)OCO3)cc1 [O, (4-Methoxybenzyl)-3,4-methylenedioxy-6-iso-propoxybenzene]",Oviposition,flies (family Muscidae) [2]; 0.25% in food,Normal
same,Oviposition,flies (family Muscidae) [2]; 0.5% in food,None
"CCCCOc1cc2c(cc1Cc1ccc(OC)cc1)OCO2 [P, (4-Methoxybenzyl)-3,4-methylenedioxy-6-n-butoxybenzene]",Oviposition,flies (family Muscidae) [2]; 0.5% in food,Normal
"COc1ccc(Cc2cc3c(cc2OCC(C)C)OCO3)cc1 [Q, (4-Methoxybenzyl)-3,4-methylenedioxy-6-iso-butoxybenzene]",Oviposition,flies (family Muscidae) [2]; 0.25% in food,Normal
same,Oviposition,flies (family Muscidae) [2]; 0.5% in food,None
"CCOc1cc2c(cc1C(C)(C)c1ccccc1)OCO2 [Y, (α,α-Dimethylbenzyl)-3,4-methylenedioxy-6-ethoxybenzene]",inducing sexual sterility or inhibiting oviposition,flies (family Muscidae) [1],ineffective
"CCCOc1cc2c(cc1C(C)(C)c1ccccc1)OCO2 [Z, (α,α-Dimethylbenzyl)-3,4-methylenedioxy-6-n-propoxybenzene]",inducing sexual sterility or inhibiting oviposition,flies (family Muscidae) [1],ineffective
